Experimental data reported in PubChem BioAssay (Tox21).
“And” between values parts separate entries of the source, which are not always exact repeats. Equal entries are not always repeated. The shares of active, inactive and inconclusive entries below differ from those in the screen. A potency beside an inconclusive call is a rough fit, not a confirmed value. The source made the active and inactive calls. Calls come from the whole dose curve; as a rule, active = well fitted activation curve with a large enough effect in the repeat runs; inconclusive = weak or mixed curves; inactive = flat fitted curve, though single readings scatter.

Experiment: A CellTox Green Cytotoxicity Assay to monitor cytotoxicity in HepG2 cells - 24 hour (AID 1224878); note: nearly all actives have a fitted effect of over 45% in size
Conditions: CellTox Green fluorescence; series mostly up to 76.8 µM; cytotoxicity: at the top concentration
How it was run: (§1)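 Using 1536-well format, dye-containing HepG2 suspension was seeded, allowed 5 h at 37 C/5% CO2, dosed by pintool with compounds, positive and negative controls, and imaged for fluorescence across 40 h.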
% is set by controls: 0 for no effect and ±100 for the full control effect; potency is the fitted concentration of half-maximal effect; tags give direction and shape of the fitted curve.

Compound	cytotoxicity	Potency
CCCCCCCCCCCCCCCBr	inactive: -5.24% [at 35.3 µM]	–
COCCCOCCCOC	–	inconclusive: 54.9 µM [activator, single point]
O=C(Cl)c1ccc([N+](=O)[O-])cc1	inactive: 3.68%	–
O=C(CCCN1CCC(O)(c2ccc(Cl)cc2)CC1)c1ccc(F)cc1	–	active: 24.5 µM and inconclusive: 26.8 µM [activator, single point]
CC(C)OC=O	–	inconclusive: 1.38 µM [activator, partial curve, poor fit]
CC(C)OC(=O)c1ccccc1	inactive: -8.1%	–
COC(=O)CCCCC(CCSS/C(CCO)=C(\C)N(C=O)Cc1cnc(C)nc1N)SC(C)=O (stereo unspecified)	inactive: -20.7% [at 35.3 µM]	–
CC(=O)c1ccc2c(c1)Cc1ccccc1-2	–	inconclusive: 1.55 µM [activator, partial curve]
CC(C)CCCCCCOC(=O)C1CCCCC1C(=O)OCCCCCCC(C)C (stereo unspecified)	inactive: -8.06%	–
CC(C)=CCC/C(C)=C/COC=O	inactive: 5.37%	–
BrCc1cccc(Oc2ccccc2)c1	–	inconclusive: 43.6 µM [activator, partial curve]
CCC(C)CCCC(C)(C)O (stereo unspecified)	inactive: -20.1%	–
Nc1ncnc2c1ncn2[C@@H]1O[C@H](CO)[C@@H](O)[C@H]1O	inactive: -1.94% [at 35.3 µM]	–
CCOC(=O)COc1ccc(C)cc1	inactive: 10.6%	–
C[Si](C)(C)O[Si](C)(C)C	–	inactive
NC1CCCCC1N (stereo unspecified)	–	inactive
C[C@H](CS)C(=O)N1CCC[C@H]1C(=O)O	inactive: -0.114% [at 35.3 µM]	–
c1ccc2c(c1)Oc1ccccc1S2	–	inconclusive: 61.6 µM [activator, single point]
CN1CCN2c3ccccc3Cc3ccccc3C2C1 (stereo unspecified)	–	inconclusive: 23.9 µM [activator, partial curve, poor fit]
COC(=O)c1ccc(C(=O)OC)c(C(=O)OC)c1	–	inconclusive: 21.9 µM [activator, single point]

Experiment: A CellTox Green Cytotoxicity Assay to monitor cytotoxicity in HepG2 cells - 40 hour (AID 1224879); note: nearly all actives have a fitted effect of over 40% in size
Conditions: CellTox Green fluorescence; series mostly up to 76.8 µM; cytotoxicity increase: at the top concentration
How it was run: as §1

Compound	cytotoxicity increase	Potency
CCCCCCCCC(=O)OCC(C)OC(=O)CCCCCCCC (stereo unspecified)	inactive: 4.58%	–
O=S(=O)(c1cccc2cnccc12)N1CCCNCC1	–	inconclusive: 26.8 µM [activator, single point]
COCCCOCCCOC	–	inconclusive: 54.9 µM [activator, single point]
O=C(O)Cn1c(C(=O)Nc2nc(-c3ccccc3Cl)cs2)cc2ccccc21	inactive: 1.99% [at 35.3 µM]	–
Nc1cccc(N)n1	–	inactive
Oc1ccccc1O	–	inconclusive: 24.8 µM [activator, partial curve, poor fit]
CC(C(=O)O)c1ccc(-c2ccccc2)c(F)c1 (stereo unspecified)	–	inconclusive: 54.9 µM [activator, single point]
CC(C)OC=O	–	inconclusive: 1.38 µM [activator, partial curve, poor fit]
CC(C)c1ccc2ncccc2c1	inactive: -1.93%	–
BrCc1cccc(Oc2ccccc2)c1	–	inconclusive: 49 µM [activator, single point]
c1ccc2c(c1)ccc1cc3c(ccc4ccccc43)cc12	–	active: 4.32 µM and active: 1.22 µM
Cc1oc(-c2ccccc2)nc1CCC(=O)c1ccc(CC2SC(=O)NC2=O)cc1 (stereo unspecified)	inactive: -9.31% [at 35.3 µM]	–
Oc1cccc2cc3cccc(O)c3c(O)c12	inactive: -26.2%	–
O=c1[nH]c(=O)n([C@H]2O[C@H](CO)[C@@H](O)[C@@H]2O)cc1/C=C\Br	inactive: -2.35% [at 35.3 µM]	–
CC(C)[C@H]1CC[C@H](C)C[C@@H]1O	inactive: 1.91%	–
C[Si](C)(C)O[Si](C)(C)C	–	inactive
CCCCN(CCCC)C(=O)N(CCCC)CCCC	inactive: 1.44%	–
C=CC(=C)CCC=C(C)C	inactive: 2.87%	–
CCCc1c(OCCCCc2nn[nH]n2)ccc(C(C)=O)c1O	–	inconclusive: 9.52 µM [activator, partial curve, poor fit]
c1ccc2c(c1)Oc1ccccc1S2	–	inconclusive: 61.6 µM [activator, single point]
CN1CCN2c3ccccc3Cc3ccccc3C2C1 (stereo unspecified)	–	inconclusive: 23.9 µM [activator, single point]
COC(=O)c1ccc(C(=O)OC)c(C(=O)OC)c1	–	inconclusive: 21.9 µM [activator, single point]
CC(NCCC(c1ccccc1)c1ccccc1)c1ccccc1 (stereo unspecified)	–	active: 15.1 µM
c1cc2ccc3ccc4ccc5cccc6c(c1)c2c3c4c56	inactive: -16.7% [at 2.72 µM]	–
CCOC(=O)CC(C(C)=O)C(C)=O	inactive: -2.52%	–
CCN(CC)C(=O)N1CCN(C)CC1	inactive: 15.8% [at 35.3 µM]	–
